Measurements taken from PubChem BioAssay AID2100 (National Center for Advancing Translational Sciences (NCATS), 2009).
Where “and” joins values, the source holds several entries; their conditions need not be identical. Identical values can stand only once. The whole screen tested about 300,000 compounds, of which about 1,200 (0.4%) were called active. The inconclusive results got no clear call from the source; some entries with a clear call stand among them for comparison. Calls come from the whole dose curve; as a rule, active = well fitted inhibition curve with a large enough effect; inconclusive = small, poorly fitted or top-dose-only effect, or another doubt; inactive = no such curve, though single readings can be large or run the other way. A potency beside an inconclusive call is a rough fit, not a confirmed value.

Target: Lysosomal alpha-glucosidase (Homo sapiens) (UniProt P10253)
Test: qHTS Assay for Inhibitors and Activators of Human alpha-Glucosidase Cleavage of Glycogen;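 for activity change, negative = inhibition: 0% = full enzyme reaction and -100% = no-enzyme basal signal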
Details: recombinant GAA, glycogen substrate, Amplex Red glucose oxidase fluorescence; activity change, negative = inhibition: at 76.4 µM (top of the series) unless noted
Outline: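 Recombinant enzyme (4 nM final) with compounds titrated up to 77 uM and bovine liver glycogen (30 ug) in citrate pH 5.0, 0.01% Tween-20, 37 C 40 min. Released glucose detected by Amplex Red/glucose oxidase (Ex 573/Em 610); AC50 from Hill fits.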
Potency is the fitted concentration of half-maximal effect.

| SMILES | activity change, negative = inhibition | Potency |
| --- | --- | --- |
| O=C(Nc1cccc(Cl)c1)c1ccc2ncsc2c1 | inactive: -8.49% | – |
| O=C(N/N=C/c1c(Cl)cccc1Cl)c1n[nH]c2c1CCCC2 | inactive: 2.06% | – |
| CCCC(CCC(=O)Nc1cc([N+](=O)[O-])ccc1O)C(=O)O (configuration not stated) | – | inconclusive: 44.7 µM [inhibitor, single point] |
| COc1ccccc1CNC(=O)CSc1ccc(C)cc1 | inactive: -0.825% | – |
| CCCNc1c(N)c(=O)oc2ccccc12 | – | inconclusive: 20 µM [inhibitor, partial curve] |
| Cc1ccc(N=Nc2c(N)n[nH]c2N)cc1 | – | inconclusive: 19.8 µM [inhibitor, partial curve] |
| CCOC(=O)c1cc(CC)sc1N | – | inconclusive: 25.1 µM [inhibitor, partial curve] |
| O=C(NN=C1CCCC1)c1sc2ccccc2c1Cl | – | inconclusive: 39.8 µM [inhibitor, partial curve] |
| Cc1ccc(Nc2nc(CSc3nnc(-c4ccccc4)n3C)cs2)cc1 | – | inconclusive: 20 µM [inhibitor, partial curve] |
| COC(=O)c1[nH]c2ccc(Cl)cc2c1NC(=O)C1CC1 | inactive: 5.62% | – |
| CCN1C(=NCCc2c[nH]c3ccccc23)N[C@@H](c2ccccc2)C(C(=O)OC)=C1C | – | inactive |
| CC1CCN(c2ccc(C(=O)O)cc2N)CC1 | – | inconclusive: 28.2 µM [inhibitor, single point] |
| CCN1CCN(c2oc(/C=C/c3ccccc3)nc2C#N)CC1 | inactive: 1.87% | – |
| COC(=O)CCCC1=CC2=CC(=O)C(C)(OC(=O)c3cccs3)C(=O)C2=CN1CCCOC(C)C (configuration not stated) | inactive: 5.38% | – |
| CC(C)CC(C)NNC(=O)c1cc2ccccc2[nH]1 (configuration not stated) | – | inconclusive: 3.55 µM [inhibitor, full curve] |
| COCCNC(=O)CCSc1nc(-c2ccc3c(c2)OCO3)cc(C(F)(F)F)n1 | inactive: -3.17% [at 76.3 µM] | – |
| Cc1ccc2[nH]c(C(=O)NN=C3CCCCC3)c(-c3ccccc3)c2c1 | – | inconclusive: 39.8 µM [inhibitor, single point] |
| Cc1ccn2c(Nc3c(C)cccc3C)c(-c3ccc(Cl)s3)nc2c1 | – | inconclusive: 3.98 µM [inhibitor, full curve] |
| C/C(=N\NC(=S)Nc1cccc(C)c1)c1cc2ccccc2o1 | – | inconclusive: 35.5 µM [inhibitor, single point] |
| C=CCNC(=S)Nc1sc2c(c1C#N)CCCC2 | – | inconclusive: 25.1 µM [inhibitor, single point] |
| O=C(Cc1ccc2c(c1)OCCO2)c1c(O)cc(O)cc1O | – | inconclusive: 20 µM [inhibitor, partial curve] |
| C=CCSC1=C(C#N)C2(CCCCC2)C(C#N)C(=O)N1 (configuration not stated) | – | inconclusive: 39.8 µM [inhibitor, partial curve] |
| Clc1cccc(Cl)c1CNc1ccc(N2CCCC2)cc1 | – | inconclusive: 39.8 µM [inhibitor, partial curve] |
| O=c1oc2ccc(Cl)cc2nc1/C=C(\O)c1ccco1 | – | active: 7.08 µM |

| SMILES | activity change, negative = inhibition | Potency |
| --- | --- | --- |
| O=C(O)c1cc(S(=O)(=O)Nc2ccc3oc(=O)sc3c2)ccc1O | – | inconclusive: 35.5 µM [inhibitor, single point] |
| CCO/C=N/Nc1nc(C(F)(F)F)nc2c1cnn2Cc1ccccc1 | – | inconclusive: 20 µM [inhibitor, partial curve] |
| CCC1CN(S(=O)(=O)c2ccc3c(c2)NC(=O)CC(=O)N3)c2cc(Cl)ccc2O1 (configuration not stated) | inactive: -9.07% [at 76.3 µM] | – |
| CCOc1cc(NC(=S)Nc2ccc(Cl)cc2)c(OCC)cc1NC(C)=O | – | inconclusive: 24.9 µM [inhibitor, partial curve] |
| Cc1ccn2c(Nc3ccc4c(c3)OCO4)c(-c3ccc(Cl)cc3)nc2c1 | inactive: -13.5% [at 76.3 µM] | – |
| Cc1[nH]c2ccccc2c1C(O)c1ccncc1 (configuration not stated) | inactive: -8.77% | – |
| CCOc1ccccc1NC(=S)N1CCCc2ccccc21 | – | inconclusive: 50.1 µM [inhibitor, single point] |
| COc1cc(/C=N/NC(=O)CCn2nc(C)cc2C)ccc1O | – | inconclusive: 35.5 µM [inhibitor, partial curve] |
| CCCCCCC(=O)Nc1nc(C)c(-c2csc(Nc3ccccc3OC)n2)s1 | – | inconclusive: 31.4 µM [inhibitor, single point] |
| Cc1ccccc1Nc1c(-c2cccnc2)nc2cccc(C)n12 | – | inconclusive: 3.16 µM [inhibitor, full curve] and inconclusive: 22.4 µM [inhibitor, partial curve] |
| Cc1ccc(CN2C(=O)C(=O)c3cc(Br)cc(C)c32)cc1 | inactive: 13.1% [at 76.3 µM] | – |
| C=CCOc1c(Br)cc(CNc2ccc3[nH]c(=O)[nH]c3c2)cc1OCC | – | inconclusive: 11.2 µM [inhibitor, partial curve] |
| CCOc1ccc(NC(=O)C(c2ccccn2)N(C(=O)CCl)c2ccc(OC)cc2)cc1 (configuration not stated) | – | inconclusive: 8.91 µM [inhibitor, partial curve] |
| COc1ccc(-c2cc(-c3c(O)c(OC)c4occc4c3OC)[nH]n2)cc1OC | – | inconclusive: 7.03 µM [inhibitor, full curve] |
| CCC/C=N/NC(=O)c1cc(Br)ccc1O | – | inconclusive: 11.2 µM [inhibitor, partial curve] |
| CCn1c(C)nc2cc(C(=O)NNC(=S)Nc3ccc(OC)cc3)ccc21 | – | inconclusive: 5.01 µM [inhibitor, full curve] |
| C=CCn1c(SCC(=O)NC2CCCC2)nc2scc(-c3ccco3)c2c1=O | inactive: 2% | – |
| CCOC(=O)c1c(NC(=O)CC2Nc3cc(C)c(C)cc3NC2=O)sc(C)c1C (configuration not stated) | – | inconclusive: 28.2 µM [activator, partial curve] |
| CC(=O)/C(N)=N/Nc1cccc(Cl)c1 | – | inconclusive: 50.1 µM [inhibitor, single point] |
| Cc1ccc2cc(/C=N/Nc3ccc(C(=O)O)cc3)c(Cl)nc2c1 | – | inconclusive: 39.8 µM [inhibitor, single point] |
| COc1ccc(CNc2oc(-c3cccc4ccccc34)nc2C#N)cc1 | – | inconclusive: 14.1 µM [inhibitor, partial curve] |
| Cc1nc2sccn2c1-c1csc(NCc2ccccc2)n1 | – | inconclusive: 28.2 µM [inhibitor, single point] |
| N#Cc1nc(-c2ccc(OCc3ccccc3)cc2)oc1NCCN1CCOCC1 | – | inconclusive: 17.6 µM [inhibitor, partial curve] |
| O=c1oc2ccccc2c(Nc2ccccc2O)c1[N+](=O)[O-] | – | inconclusive: 12.5 µM [inhibitor, partial curve] |

| SMILES | activity change, negative = inhibition | Potency |
| --- | --- | --- |
| CCOc1cc(N2CCOCC2)c(OCC)cc1NS(=O)(=O)c1ccc(Cl)s1 | inactive: 7.62% | – |
| COc1cc(OC)cc(C(=O)NCC(=O)N2CCN(c3ccc(O)cc3)CC2)c1 | – | inconclusive: 35.5 µM [inhibitor, single point] |
| COc1ccc(CCN2C(=O)N(c3ccc(F)cc3)C(=O)C2CC(=O)Nc2ccccc2)cc1OC (configuration not stated) | – | inconclusive: 50.1 µM [inhibitor, partial curve] |
| O=C(COC(=O)c1ccc(O)cc1)Nc1ccc(N2CCCCC2)cc1 | – | inconclusive: 8.84 µM [activator, partial curve] |
| Fc1ccc([C@@H]2Nc3ccccc3[C@@H]3C=CC[C@@H]32)cc1 | – | inconclusive: 50.1 µM [inhibitor, single point] |
| C=CCOC(=O)C1=C(C)OC(N)=C(C#N)C1c1ccoc1 (configuration not stated) | – | inconclusive: 39.5 µM [inhibitor, single point] |
| COC(=O)c1ccc(N2C(=O)CC(SCCN)C2=O)cc1 (configuration not stated) | inactive: 2.49% | – |
| C/C(=N/N1CCN(Cc2cccc3ccccc23)CC1)c1cccnc1 | – | inconclusive: 7.94 µM [inhibitor, partial curve] |
| O=C(/C=C/c1ccc(O)c(O)c1)c1ccccc1O | – | active: 7.88 µM |
| Nc1ccc2oc(=O)c3ccccc3c2c1 | inactive: 2.12% | – |
| Cc1cc(=O)n(-c2ccc(O)cc2)[nH]1 | – | active: 14 µM |
| S=c1[nH]nc(-c2ccc(Cl)cc2Cl)n1Cc1ccccc1 | – | inconclusive: 31.6 µM [inhibitor, single point] |
| Cc1cc(C)c(S(=O)(=O)Nc2ccc(O)c(Sc3ncn[nH]3)c2)cc1C | – | inconclusive: 17.8 µM [inhibitor, partial curve] |
| Oc1ccc(/C=N/NC(=S)NCC2CCCO2)cc1 (configuration not stated) | – | active: 31.6 µM |
| COc1cc(/C=N/Nc2ccc(C)cc2)cc(Br)c1O | – | inconclusive: 28.2 µM [inhibitor, partial curve] |
| CCc1ccc2oc(-c3cc(N)cc(C)c3O)nc2c1 | – | inconclusive: 12.5 µM [inhibitor, partial curve] |
| Cc1c(NC(=O)OCCNC(=O)COc2c(Cl)cccc2Cl)sc(=S)n1C | – | inconclusive: 35.2 µM [inhibitor, partial curve] |
| Cc1ccc(Cl)cc1NC(=O)c1ccc2snnc2c1 | – | inconclusive: 10 µM [inhibitor, partial curve] |
| CCC(=O)NC(Nc1c(C)n(C)n(-c2ccccc2)c1=O)C(Cl)(Cl)Cl (configuration not stated) | – | inconclusive: 11.1 µM [inhibitor, partial curve] |
| CCCn1c(N/N=C(C)\C=C\c2ccccc2)nc2c1c(=O)[nH]c(=O)n2C | – | inconclusive: 8.91 µM [inhibitor, full curve] |
| CC(C)(C)NC(=S)NNC(=O)c1ccc2ncccc2c1 | – | inconclusive: 39.8 µM [inhibitor, partial curve] |
| c1ccc(Cc2nc3ccccc3[nH]2)cc1 | – | inconclusive: 50.1 µM [inhibitor, single point] |
| Cc1ccccc1N/N=C/c1ccc(N2CCOCC2)cc1 | – | inconclusive: 28.2 µM [inhibitor, single point] |
| NNC(=O)c1ccc([N+](=O)[O-])c(CS(=O)(=O)c2ccc(Cl)cc2)c1 | – | inconclusive: 35.2 µM [inhibitor, partial curve] |
